Reference: the RNAGym collection of RNA variant scans (doi:10.1093/nar/gkz1192)
Read counts are not given, so values of variants with three or more changes are uncertain.

B1: CPEB3 Ribozyme (parent)
chain: UAACAGGGGGCCACAGCAGAAGCGUUCACGUCGCAGCCCCUGUCAGAUUCUGGUGAAUCUGCGAAUUCUGCUGUAUAUCUC

Variants of: B1
Test: self-cleavage, relative activity (ratio to wild type); higher = more cleavage; in vitro, sequencing
Summary of the method: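 For each CPEB3 ribozyme variant, relative activity is its cleaved/total read fraction divided by the unmutated ribozyme's. Barcoded error-prone PCR libraries were transcribed by T7 RNA polymerase (5 hours, 37°C) and held in DNase I for 15 min before an EDTA stop, with cleavage occurring throughout. Template-switching reverse transcription and Illumina sequencing were used to read the RNAs. A 5-read minimum applied, and results are the mean of three batches.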

Variant	self-cleavage
UAACAAGGGGCCACAGCAGAAGCGUUCACGUCGCAGCCCCUGUCAGAUUCUGGUGAAUCUGCAAAUUCUGCUGUUUAUCUC	0.33
UAACAAGGGGCCACAGCAGAAGCGAUCACGUCGCGGCCCCUGUCAGAUUCUGGUGAAUCUGCGAGUUCCGCUGUAUAUCUC	0.05
UAACAAGGGGCCACAGCAGAAGCGAUCACGUCACAGCCCCCGUCAGAUUCUGGUGAAUCUGCGAACUCUGCUGUAUAUCUC	0.08
UAACAAGGGGCCACAGCAGAAGCGAGCACGUCGCAGCCCCUGUCAGAUUCUGGUGAAUCUGCGAAUUCUGCUGUAUGUCAC	0.26
UAACAAGGGGCCACAGCAGAAGCGCUCGCGUCGCAGCCCCUGUCGGAUUCUGGUGAAUCUGCGAAUUCUGCUGUAUAUCUC	0.07
UAACAAGGGGCCACAGCAGAAGCGCUCUCGUCGCAGCCCCUGUCAGAUUCUGGUGAAUCUGCGAAUUCUGCUGUAUAUCUC	0.08
UAACAAGGGGCCACAGCAGAAGCGCUCACGUCGCUGCCCCUGUCAGAUUCUGGUGAAUCUGCGGAUUCUGCAGUAUAUCUC	0.05
UAACAAGGGGCCACAGCAGAAGCGCUCACGUCGCAGCCCCUGUCGGAUUCUGGUGAAUCUGCGAAUUCUGCUGUAUAUCUC	0.1
UAACAAGGGGCCACAGCAGAAGCGCUCACGUCGCAGCCCCUGUCGGAUCCGGGUGAAUCUGCGAAUUCUGCUGUAUAUCUC	0.38
UAACAAGGGGCCACAGCAGAAGCGCUCACGUCGCAGCCCCUGUCAGGUUCUGGCGAAUCUGCGAAUUCUGCUGUAUAUCUC	0.05
UAACAAGGGGCCACAGCAGAAGCGCUCACGUAGCAGCCCCUGUCAGAUUCUGGUGAAUCUGCGAAUUCUGCUGUAUAUCAC	0.29
UAACAAGGGGCCACAGCAGAAGCGCUCACGUCGUAGCCCCUGUCGGAUUCUGGUGUAUGUGCGAGUUCUGCUGUAUAUCUC	0.02
UAACAAGGGGCCACAGCAGAAGCGCUCACGACGCAGCCCCUGUCGGGUUCUGGUGAAUCUGCGAAUUCUGCUGUAUAUCUC	0.28
UAACAAGGGGCCACAGCAGAAGCGCUCACGACGCAGCCCCUGUCAGAUUCUGGAGAAUCUGCGAAUUCUGCUGUAUAUCUC	0.07
UAACAAGGGGCCACAGCAGAAGCGCUCACGCCGCAGCCCCUGUCAGAUUCUGGUGAGUCUGCGGAUUCUGCUGUAUAUCUC	0.08
UAACAAGGGGCCACAGCAGAAGCGCUCACGUCGCAGCCCCCGUCAGAUUCUGGUGAAUCUGCGAAUUCUGCUGUAUAUCUC	0.05
UAACAAGGGGCCACAGCAGAAGCGCUCACGUCGCAGCCCCUGACAGAUUCUGGUGGAUCUGCGAAUUCUGCCGUAUACCUC	0.06

Variant	self-cleavage
UAACAAGGGGCCACAGCAGAAGCGCUCACGUCGCAGCCCCUGACAGAUUCUGGUGAAUCUGUGAACUCUGCUGUACAUCUC	0.06
UAACAAGGGGCCACAGCAGAAGCGCUCACGUCGCAGCCCCUGUCAGAUCCUGGUGAAUCUGCGGAUUCUGCUGUAUAUCUC	0.1
UAACAAGGGGCCACAGCAGAAGCGCUCACGUCGCAGCCCCUGUCAGAUUCUGGUGAAUCUGCGAACUCUGCUGUAUAUCUC	0.37
UAACAAGGGGCCACAGCAGAAGCGCUCACGUCGCAGCCCCUGUCAGAUUCUGGUGAAUCUGCGAAUUCCGCUGUAUAUCUC	0.05
UAACAAGGGGCCACAGCAGAAGCGGUCACGUCGCAGCCCCUGUCAGAUACUGGUGAAUCUGCGGAUUCAGCUGUAUAUCUU	0.05
UAACAAGGGGCCACAGCAGAAGCGGUCACGUCGCAGCCCCUGUCAGAUUCUGGCGAAUCUGCGAAUUCUGCUGUAUAUCUC	0.28
UAACAAGGGGCCACAGCAGAAGCGUACGCGUCGCAGCCCCUGUCAGAUUCUGGUGAAUCUGCGAAUCCUGCUGUAUAUCUC	0.11
UAACAAGGGGCCACAGCAGAAGCGUACACGUCGCAGCCCCUGUCAGAUUCUGGUGAGUCUGCGAAUUCUGCUGUAUAUCUC	0.08
UAACAAGGGGCCACAGCAGAAGCGUAAGCGUCGCAGCCCCAGUCAGAUUCUGGUGAAUCUGCGAAUUCUGCUGUAUAUCUC	0.08
UAACAAGGGGCCACAGCAGAAGCGUACACGUCGCAGCCUCUGUAAGAUUCUGGUGAAUCUGCGAAUUCUGCUGUAUAUCCC	0.06
UAACAAGGGGCCACAGCAGAAGCGUACACGUCGCAGCCCCUCUCAGAUUCUGGUGAAUCUGCGAAUUCUGCCGUAUAUCUC	0.07
UAACAAGGGGCCACAGCAGAAGCGUCCACGUCGCAGCCCCUGUGAGAUUCUGGUGAAUCAGCGAAUUCUGCUGUAUAUCUC	0.27
UAACAAGGGGCCACAGCAGAAGCGUCCACUUCGCAGCCCCUGUCAGAUUCUGGUGUAUCUGCGAAUUCUGCUGUAUAUCUC	0.06
UAACAAGGGGCCACAGCAGAAGCGUCCACGGCGCAGCCCCUGUCAGAUUCUGGUGGAUCUGCGAAUUCUGCUGUAUAUCUC	0.05
UAACAAGGGGCCACAGCAGAAGCGUCCACGUCGCAGCCCCCGUCAGAUUCUGGUGAGUCUGCGAAUUCUGCUGUACAUCUC	0.23
UAACAAGGGGCCACAGCAGAAGCGUCCACGUCGCAGCCCCUGUCAGAUUCUGGUGAAUCUGCGAAUUCUGCGGUAUAUCUC	0.25
UAACAAGGGGCCACAGCAGAAGCGUGCACGUCGCAGCCCAUGUCAGAUUCUGGAGAAUCUGCGUAUCCUGCUGUAUAUCUC	0.04
